From PubChem BioAssay AID488895 (Broad Institute, 2010)
In all, about 340,000 compounds went through this assay and about 120 (0.035%) were called active. The inconclusive results got no clear call from the source; some entries with a clear call stand among them for comparison.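 How the source made its calls: active means mean replicate inhibition at least 50% and at least half of replicates individually reaching 50%; inconclusive means only one of the two criteria met; inactive means neither criterion met.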

assay: E. coli Tat export inhibitors, primary screen, MC4100, TorA-mCherry reporter, fluorescence, single point (AID 488895); conditions: at 10 µM, stronger effect = higher value;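 further: exported cargo escapes ClpAP degradation while cytoplasmic cargo is degraded and loses fluorescence; 0% = median of neutral control wells and 100% = median of NaSCN control wells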

Compound | inhibition
CC(C)(C)c1ccc(S(=O)(=O)N2CCSC2)cc1 | inconclusive: 22.2%
CC(O/N=C/c1ccc(OC(F)F)cc1)C(=O)Nc1cccc(S(=O)(=O)N2CCOCC2)c1 (stereo not drawn) | inconclusive: 30.8%
COc1ccc(S(=O)(=O)N2CCC(C(=O)NCc3cccnc3)CC2)cc1OC | inconclusive: 24.1%
CC(CN1CCOCC1)(NS(=O)(=O)c1ccccc1)c1ccccc1 (stereo not drawn) | inconclusive: 31.3%
CC(Sc1nncs1)C(=O)Nc1ccc2c(c1)OCCO2 (stereo not drawn) | inconclusive: 32%
COc1ccc(Nc2cc(C)nc3nc(C)nn23)c(OC)c1 | inconclusive: 24%
Clc1ccc2[nH]c3c(c2c1)CCc1cn[nH]c1-3 | inactive: 3.05%
Cc1ccc(NC(=S)NCCC2=CCCCC2)cc1 | inconclusive: 24.3%
CCc1cccc(CC)c1NC(=S)NCC(c1cccnc1)N(C)C (stereo not drawn) | inconclusive: 30%
CCC(C)(C)c1ccc(OCCCC[n+]2cccc(C)c2C)c(C(C)(C)CC)c1 | inactive: 24.7%
COc1ccc(S(=O)(=O)Nc2nc3c(s2)CCCC3)cc1 | inconclusive: 24.5%
Cc1nc2ccccn2c1/C(O)=C1\C(=O)C(=O)N(CCN(C)C)C1c1ccco1 (stereo not drawn) | inconclusive: 22.9%
CCN(CC)S(=O)(=O)c1cc(NC(=O)c2ccc(-n3cncn3)c([N+](=O)[O-])c2)ccc1C | inconclusive: 35.4%
CCc1ccc(N2CC(C(=O)N3CCN(c4ccccn4)CC3)CC2=O)cc1 (stereo not drawn) | inconclusive: 30.9%
COc1ccc2cc(C(=O)CS(=O)(=O)c3ccccc3)c(=O)oc2c1 | inactive: -14.9%
Cc1cc(O)c(C(=O)/C=C/c2cccc([N+](=O)[O-])c2)c(=O)o1 | inactive: -2.66%
CN(C)CCCNC(=O)C(=O)NCC1CCCO1 (stereo not drawn) | inconclusive: 28.1%
COC(=O)[C@H]1[C@H]2C[C@H]3c4[nH]c5ccccc5c4CCN3C[C@@H]2CC[C@@H]1O | inconclusive: 33.1%
Cc1cc(C(=O)NNC(=O)c2ccc(F)cc2)c(C)s1 | inconclusive: 39.3%
Cc1cc(C)n(-c2ccc(NC(=O)C3CCN(Cc4ccccn4)CC3)cc2)n1 | inconclusive: 35.1%
O=C(N[C@@H](Cc1ccccc1)C(=O)NC1CC1)c1ccc(Cl)cc1 | inconclusive: 27.5%
COc1cccc(C2CC(c3cccc(OC)c3)n3nc(N)nc3N2)c1 (stereo not drawn) | inconclusive: 37.6%

Compound | inhibition
CCn1c(=O)c2c3c(sc2n2c(=S)[nH]nc12)CCC3 | inconclusive: 29.7%
O=C(O)CCc1ccc(-c2cccs2)o1 | inconclusive: 32.4%
Cc1cccc(OCc2n(CC(=O)OC3CC(C)CCC3C(C)C)c3ccccc3[n+]2C)c1 (stereo not drawn) | inactive: 36.8%
O=[N+]([O-])c1ccc(/C=N/n2c(CO)nc3ccccc32)s1 | inconclusive: 28.4%
CCn1cc(C(=O)NCC2CCCO2)c(=O)c2cc(F)c(N3CCN(C)CC3)cc21 (stereo not drawn) | inactive: -2.65%
CCn1ccnc1CN1CCCC(C(=O)c2ccc3c4c(cccc24)CC3)C1 (stereo not drawn) | inactive: -0.858%
COc1ccc(NC(=O)c2ccc(Oc3ncccn3)cc2)cc1 | inconclusive: 31.2%
O=C(c1cccnc1)C1CCCN(Cc2nc(Cc3ccccc3)no2)C1 (stereo not drawn) | inconclusive: 42.4%
CC(Oc1ccc(Cl)cc1)C(=O)NNC(=S)NC(=O)c1ccco1 (stereo not drawn) | inactive: -2.52%
CN1CCN(C(=O)N(c2ccccc2)c2ccccc2)CC1 | inactive: 6.86%
O=C(Nc1ccncc1)c1ccc(Cl)cc1 | inactive: 3.95%
O=C(NCc1cccnc1)c1cccc(-c2cc3ccccc3oc2=O)c1 | inconclusive: 25%
O=C(NC1CC1)C1CCN(C2CCN(C(=O)Cc3ccc(F)cc3)CC2)CC1 | inconclusive: 24.3%
COc1ccccc1N1CCN(CC(=O)Nc2ccc3c(c2)OCCO3)CC1 | inconclusive: 23%
COc1ccc(CN2CCN(C(=O)C3CCC(CNS(=O)(=O)c4ccccc4)CC3)CC2)c(OC)c1OC (stereo not drawn) | inconclusive: 29.6%
CCn1c(C)nc2cc(C(=O)N/N=C/c3ccc(OC)c(O)c3)ccc21 | inconclusive: 32.6%
c1coc(CNc2nc3ccccc3s2)c1 | inactive: -1.13%
CCOc1ccc(-n2c(SCC(=O)O)nc3sc4c(c3c2=O)CCCC4)cc1 | inconclusive: 34.9%
COc1ccc(CC(=O)NCC2CCCCC2)cc1OC | inactive: 2.52%
O=C(O)CC(Cc1ccc(Cl)cc1)C(=O)Nc1ccc([N+](=O)[O-])cc1 (stereo not drawn) | inactive: 4.75%
CNC(CC(C)C)C(=O)NC1C(=O)NC(CC(N)=O)C(=O)NC2C(=O)NC3C(=O)NC(C(=O)NC(C(=O)O)c4cc(O)cc(O)c4-c4cc3ccc4O)C(O)c3ccc(c(Cl)c3)Oc3cc2cc(c3OC2OC(CO)C(O)C(O)C2OC2CC(C)(N)C(O)C(C)O2)Oc2ccc(cc2Cl)C1O (stereo not drawn) | inactive: -34.8%
Cc1ccc(Cl)cc1NC(=O)CON=C(N)c1ccccc1 | inconclusive: 36.6%

Compound | inhibition
COC(=O)c1cccc(NC(=O)CN2CCOCC2)c1 | inactive: -7.05%
Cc1cc(C)nc(SC(C)C(=O)N/N=C/c2cccs2)n1 (stereo not drawn) | inconclusive: 21.2%
CN(C)S(=O)(=O)n1cc(/C=C(\NC(=O)c2ccccc2F)C(=O)N2CCOCC2)c2ccccc21 | inconclusive: 28.7%
O=C(Nc1nnc(-c2ccc3c(c2)CCCC3)o1)c1ccc(Cl)cc1Cl | inactive: -1.97%
Cn1c(Cn2c(=O)sc3ccccc32)nnc1SCc1ccccc1F | inconclusive: 36.1%
Cc1c(Cl)cccc1NC(=O)C1NC(=O)CC1c1ccccc1 (stereo not drawn) | inconclusive: 24.1%
COc1ccccc1/C=C/C=C1\Oc2c(ccc(O)c2CN2CCN(CCO)CC2)C1=O | inconclusive: 38.4%
CCc1nc2nc(C)c(NS(=O)(=O)c3ccc(Cl)s3)c(=O)n2[nH]1 | inconclusive: 28.2%
Cc1ccc(Sc2ncccc2C(=O)O)cc1 | inactive: 2.88%
OCC1(Cc2ccc(Cl)cc2)CCN(Cc2ccccc2F)CC1 | inconclusive: 23.6%
O=c1c(O)cccc2cc(O)c(O)c(O)c12 | active: 52.7%
CCCC(=O)Nc1ccc(C(=O)N/N=C/c2ccc([N+](=O)[O-])o2)cc1 | inactive: -20.6%
COc1cc(NC(=O)C2CCCCC2)c(OC)cc1NC(=O)c1ccco1 | inconclusive: 25.9%
CC(C)CNC(=S)NC1CCCC1 | inconclusive: 25.9%
COc1ccc2c3c(c(=O)oc2c1OCC(N)=O)CCCC3 | inconclusive: 31.1%
CCc1nnc(NC(=O)CN2CCN(c3nc(-c4ccccc4)cs3)CC2)s1 | inactive: 0.89%
COc1cc(CNCc2ccccn2)ccc1OCc1c(Cl)cccc1Cl | inconclusive: 24.6%
CCOC(=O)c1c(NC(=O)C2C3C=CC(C3)C2C(=O)O)sc2c1CCC(C)C2 (stereo not drawn) | inconclusive: 44%
O=C(/C=C/c1ccccc1)NNc1ccc(Cl)cc1 | inactive: 7.6%
CN(C)S(=O)(=O)c1cccc(NC(=O)C2CCN(S(=O)(=O)c3cccs3)CC2)c1 | inconclusive: 30.5%
O=C(Nc1ccc(Cl)cc1)Nc1cc([N+](=O)[O-])ccc1F | inactive: -10.9%
O=C(COc1ccc2c3c(c(=O)oc2c1)CCCC3)NCc1ccncc1 | inconclusive: 29.9%

Compound | inhibition
CN(C)c1nc(SCC#N)nc(N2CCOCC2)n1 | inconclusive: 24.7%
Cc1ccc(OCC(=O)NNC(=O)C(=O)NC(C)(C)C)cc1 | inconclusive: 36%
CC1CN(C(=O)c2cc3cc([N+](=O)[O-])ccc3oc2=O)CC(C)O1 (stereo not drawn) | inconclusive: 30.6%
O=C(c1ccco1)N1CCCC(c2nc3c(nnn3Cc3ccc(F)cc3)c(=O)[nH]2)C1 (stereo not drawn) | inconclusive: 28%
CCn1c(SCC(=O)NC2CCCCC2)nnc1-c1cccnc1 | inconclusive: 35.3%
CC(C)c1nnc(NC(=O)CCS(=O)(=O)Cc2ccccc2)s1 | inconclusive: 40.7%
COc1cccc(/C=N/Nc2ccnc(=O)[nH]2)c1O | inactive: 7.4%
O=C(O)CN1C(=O)CC(Cc2ccc(Cl)cc2)C1=O (stereo not drawn) | inconclusive: 43.4%
COC(CN(C)C(=O)C1CCCN(S(=O)(=O)c2ccc3c(c2)oc(=O)n3C)C1)OC (stereo not drawn) | inconclusive: 22.3%
CCOc1ccc(NC(=O)CNC(=O)Cc2ccccc2)cc1 | inconclusive: 27.8%
Cc1cc(C)cc(CSc2nnc(C)c(=O)[nH]2)c1 | inconclusive: 33.2%
CN1CCC(=NNC(=O)C(=O)Nc2cccc(Br)c2)CC1 | inconclusive: 33.1%
O=C(O)CCC(=O)Nc1sc2c(c1C(=O)Nc1cccc3ccccc13)CCCCC2 | inconclusive: 37.7%
CC(C(=O)NC1CCCC1)N1CCN(S(=O)(=O)c2ccc(C(C)(C)C)cc2)CC1 (stereo not drawn) | inconclusive: 30.4%
CCn1cc(C(=O)NCc2ccccc2)c(=O)c2cc(F)c(N3CCN(C(=O)c4ccco4)CC3)cc21 | inactive: 0.307%
O=C(Nc1ccccc1OC(F)F)c1oc2ccccc2c1COc1ccccc1 | inconclusive: 38.8%
COc1ccc2c(c1)c1c3n2CCN(C)C3=NCC1 | inconclusive: 41.1%
CCCN(Cc1ccccc1)C(=S)Nc1ccc(SC(F)F)cc1 | inconclusive: 21.7%
Oc1c(Br)cc(C2N=C(c3ccccc3)NO2)cc1Br (stereo not drawn) | inconclusive: 25.4%
COc1ccc2cc(C(c3nnnn3C3CCCC3)N3CCCCCC3)c3nnnn3c2c1 (stereo not drawn) | inactive: -3.92%
Cc1cc(C)n2nc(SCC(=O)N3CCN(c4ccccc4)CC3)nc2n1 | inconclusive: 34.3%
O=C(NC(NC(=S)Nc1ccccc1O)C(Cl)(Cl)Cl)c1ccco1 (stereo not drawn) | inactive: -14.3%
